# Assay results reported in paper PMC4336329 (PLoS ONE, 2015).
# Among all 310,000 compounds or so, about 2,200 (0.71%) showed an effect of 50% or more. Effects have a minus sign here. The list shows a part of the results.
# Molecular target: human ether-à-go-go-related gene (hERG) potassium channel (human, UniProt Q12809)
# Assay: primary screen, population patch clamp on CHO cells stably expressing hERG
# human ether-à-go-go-related gene (hERG) potassium channel, sequence (Q12809 whole entry, looked up): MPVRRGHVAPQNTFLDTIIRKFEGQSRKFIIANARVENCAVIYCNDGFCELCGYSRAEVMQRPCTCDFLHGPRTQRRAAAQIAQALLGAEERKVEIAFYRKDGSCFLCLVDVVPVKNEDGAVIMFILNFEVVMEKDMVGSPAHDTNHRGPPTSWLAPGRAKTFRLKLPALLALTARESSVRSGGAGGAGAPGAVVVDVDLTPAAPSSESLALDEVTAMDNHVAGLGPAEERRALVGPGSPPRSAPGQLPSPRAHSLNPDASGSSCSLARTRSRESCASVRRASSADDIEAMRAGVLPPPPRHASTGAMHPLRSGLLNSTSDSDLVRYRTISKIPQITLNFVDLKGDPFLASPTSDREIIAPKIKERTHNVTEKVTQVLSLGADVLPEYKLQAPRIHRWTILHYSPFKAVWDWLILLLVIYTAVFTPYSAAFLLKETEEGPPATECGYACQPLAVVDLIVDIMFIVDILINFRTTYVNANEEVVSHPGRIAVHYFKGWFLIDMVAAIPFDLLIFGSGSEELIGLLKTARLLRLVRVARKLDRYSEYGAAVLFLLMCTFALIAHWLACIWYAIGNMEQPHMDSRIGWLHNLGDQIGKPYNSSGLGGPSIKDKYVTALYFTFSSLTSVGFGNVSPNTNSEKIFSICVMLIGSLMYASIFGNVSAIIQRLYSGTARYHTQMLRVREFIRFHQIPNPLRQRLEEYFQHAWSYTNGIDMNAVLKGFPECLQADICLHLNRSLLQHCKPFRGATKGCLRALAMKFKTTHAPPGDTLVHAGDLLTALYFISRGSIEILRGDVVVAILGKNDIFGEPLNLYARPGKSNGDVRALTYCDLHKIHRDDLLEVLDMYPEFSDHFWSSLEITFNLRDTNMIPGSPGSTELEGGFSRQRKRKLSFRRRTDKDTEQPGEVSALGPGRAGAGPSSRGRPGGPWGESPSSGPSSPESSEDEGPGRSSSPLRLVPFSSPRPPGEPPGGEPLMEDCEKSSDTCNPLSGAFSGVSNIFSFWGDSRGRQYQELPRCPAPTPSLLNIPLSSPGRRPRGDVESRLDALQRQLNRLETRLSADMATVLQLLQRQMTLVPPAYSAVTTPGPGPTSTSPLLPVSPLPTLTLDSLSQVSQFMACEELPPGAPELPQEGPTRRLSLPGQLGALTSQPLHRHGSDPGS
row,Compound,"hERG current change (%, negative = inhibition) at 1uM [%]"
1,CC(=O)NC(Cc1c[nH]c2ccccc12)C(=O)N1CCN(S(=O)(=O)c2ccccc2)CC1 (stereo not drawn),15
2,CC(C)(C)NC(=O)c1cc(C(C)(C)C)c(O)c(C(C)(C)C)c1,7.47
3,CN(CC(=O)Nc1ccccc1Cl)C(=O)COC(=O)CSc1ccc(F)cc1,-15.6
4,CCCCCCCCCCCC(=O)N1CC(=O)NC(=O)C1,10.3
5,Cc1ccc2c(c1)C(=O)C(=O)N2CC1COc2ccccc2O1 (stereo not drawn),10
6,Cc1cc(C)cc(OCCCCn2cncn2)c1,13.5
7,COc1ccc2nc(C(F)(F)C(F)(F)F)c(C#N)c(N)c2c1,11.9
8,CCOC(=O)C1CCN(Cc2cn[nH]c2-c2ccc(C)cc2)CC1,-23.6
9,CC(C)Oc1ccc(S(=O)(=O)N2CCOCC2)cc1NC(=O)CC1OC(=O)c2ccccc21 (stereo not drawn),12.4
10,Cc1nc(C2COc3ccccc3O2)sc1C(=O)O (stereo not drawn),5.63
11,Nc1nc(NCCOCCO)nc(NC2CCCCC2)c1[N+](=O)[O-],7.16
12,OCCC1CN(C2CSCCSC2)CCN1Cc1ccccc1 (stereo not drawn),13.2
13,Cc1ccc(Cl)cc1N(CC(=O)N1CCOCC1)S(C)(=O)=O,6.86
14,COC(=O)c1ccc(C(=O)N(C)C2CCCN(Cc3ccccc3F)C2)nc1 (stereo not drawn),17.2
15,CCN(c1ccc(OC)cc1)S(=O)(=O)c1nnc(NC(=O)CC(C)C)s1,11.7
16,CC1=CC(C)(C)NC(=S)N1c1cccc2cc(S(=O)(=O)O)ccc12,19.5
17,COc1ccc(CCNC(=O)C(=O)c2cn(CC(=O)N3CCOCC3)c3ccccc23)cc1,6.84
18,O=[N+]([O-])c1ccc(OCCn2cncn2)cc1,13.6
19,O=Cc1cnc(N2CCN(Cc3ccccc3)CC2)s1,12.4

row,Compound,"hERG current change (%, negative = inhibition) at 1uM [%]"
1,Cc1ccc(C(=O)CSc2nnc(COc3cccc4cccnc34)o2)cc1,11.1
2,Cc1sc2ncnc(NCc3ccco3)c2c1C,-3.17
3,COC(=O)c1ccc(Cn2nc(-c3cc(C)ccc3C)ccc2=O)cc1,6.81
4,O=C(Cn1c2ccccc2c2nc3n(c(=O)c21)CCS3)N1CCCC1,13.7
5,Cc1ccc(C)c(N/C=C(\C#N)c2nc3ccccc3o2)c1,7.76
6,CC1CCCCC12NC(=O)N(Cc1cc(=O)n3ccsc3n1)C2=O (stereo not drawn),3.7
7,Cc1cc(S(=O)(=O)NCC(C)C)ccc1OCC(=O)N1CCN(Cc2ccccc2)CC1,4.16
8,C/C(=N/NC(=O)c1ccccn1)c1ccco1,2.75
9,CN(C(=O)COC(=O)c1cc(=O)[nH]c2ccccc12)c1c(N)n(Cc2ccccc2)c(=O)[nH]c1=O,0.122
10,O=C(Cc1ccccc1)N1CCN(Cc2ccccn2)CC1,6.39
11,Cc1c(C(=O)Nc2cnccn2)oc2ccccc12,10.1
12,O=C(/C(=N/N=C/c1ccc(O)c(O)c1)c1ccccc1)c1ccccc1,3.35
13,Cn1c(SCc2ccccn2)nc2c1c(=O)[nH]c(=O)n2C,7.25
14,O=C(O)c1ccc(-c2noc(-c3ccccc3F)n2)cc1,25.3
15,CC(=O)c1ccc(OCC(O)CN2CCN(S(=O)(=O)c3c(C)cc(C)cc3C)CC2)cc1.O=C(O)C(=O)O (stereo not drawn),5.85
16,CCn1c(=O)cc(SCC(=O)NCc2ccccn2)c2ccccc21,13.3
17,COc1ccccc1N(C)S(=O)(=O)c1ccc(Cl)c(C(=O)NCc2cccnc2)c1,7.53
18,CNC(=S)NNC(=O)c1ccccc1Cl,13.5
19,O=C(c1nc2ccc(Cl)cn2c1CN1CCC(O)CC1)N1CCc2ccccc2C1,3.61

row,Compound,"hERG current change (%, negative = inhibition) at 1uM [%]"
1,O=c1cc(C(F)(F)F)nc(-c2cccnc2)[nH]1,13.5
2,Cc1cccc(C)c1NC(=O)C(c1ccc([N+](=O)[O-])cc1)N1CCCCC1 (stereo not drawn),2.99
3,O=C(O/N=C/c1ccc2c(c1)OCO2)c1ccc([N+](=O)[O-])cc1,16.2
4,CC1CN(C(=O)COC(=O)Cc2ccc(Cl)cc2)CC(C)O1 (stereo not drawn),1.15
5,Cc1ccc(CSc2nnc(-c3cccnc3)o2)cc1,10.9
6,CCCCn1c(N)c(N(CCC(C)C)C(=O)c2oc3ccc(OCC)cc3c2C)c(=O)[nH]c1=O,5.54
7,COc1ccccc1S(=O)(=O)n1cc(Cc2ccccc2)c(N)n1,1.59
8,COc1cccc(-c2nc3sc4c(c3c(=O)[nH]2)CCCCC4)c1,21.4
9,CSc1cccc(NC(=S)N(C(C)C)C(C)c2ccccn2)c1 (stereo not drawn),15.7
10,CC1(OC(=O)C2CCCC2)C(=O)C=C2C=C(c3ccsc3)N(C(CO)CO)C=C2C1=O (stereo not drawn),-7.11
11,O=C(NC1CC1)c1ccc(S(=O)(=O)NC2CCCCCC2)cc1,2.1
12,CC(C)[C@H](NS(=O)(=O)c1ccc2c(c1)OCCO2)C(=O)OCC(=O)Nc1ccccc1Cl,12.9
13,O=C(Nc1ccc(Cn2cccn2)cc1)c1ccc(COc2ccccc2Br)cc1,14.1
14,COc1cccc(C(=O)Nc2nnc(C3CCCO3)s2)c1 (stereo not drawn),5.56
15,CC(C)CCNC(=O)c1ccc2c(c1)ncn2C1CCCC1,-9.77
16,Cc1ccc(-c2cnc(NCc3cc4c(cc3[N+](=O)[O-])OCO4)n2C)cc1C,12.5
17,COc1cccc([C@@H]2Oc3ccc(Br)cc3C(=O)[C@H]2OC(=O)NC2CCCC2)c1,12.3
18,COc1ccc(/C=C2/C(=O)ON=C2C)cc1Cl,26.8
19,COc1ccc(C(=O)O)cc1S(=O)(=O)Nc1ccccc1C(=O)NCc1ccc2c(c1)OCO2,12.6
